{"source": "PubChem BioAssay AID504333", "about": "(National Center for Advancing Translational Sciences (NCATS), 2011)", "note": "Hit rate of the full screen: of about 360,000 compounds, about 16,000 (4.4%) were called active. The inconclusive results got no clear call from the source; some entries with a clear call stand among them for comparison. Calls follow the shape of the dose curve; as a rule, active = well fitted inhibition curve with a large enough effect; inconclusive = small, poorly fitted or top-dose-only effect; inactive = no such curve, though single readings can be large or run the other way. A potency beside an inconclusive call is a rough fit, not a confirmed value. % is scaled to controls: 0 for no effect and ±100 for the full control effect; potency is read from the fitted curve at half-maximal effect; tags tell the direction and shape of the fitted curve.", "data": [{"target": "Bromodomain adjacent to zinc finger domain protein 2B (Homo sapiens) (UniProt Q9UIF8)", "sequence (Q9UIF8 whole entry, looked up, the tested form may be a part)": "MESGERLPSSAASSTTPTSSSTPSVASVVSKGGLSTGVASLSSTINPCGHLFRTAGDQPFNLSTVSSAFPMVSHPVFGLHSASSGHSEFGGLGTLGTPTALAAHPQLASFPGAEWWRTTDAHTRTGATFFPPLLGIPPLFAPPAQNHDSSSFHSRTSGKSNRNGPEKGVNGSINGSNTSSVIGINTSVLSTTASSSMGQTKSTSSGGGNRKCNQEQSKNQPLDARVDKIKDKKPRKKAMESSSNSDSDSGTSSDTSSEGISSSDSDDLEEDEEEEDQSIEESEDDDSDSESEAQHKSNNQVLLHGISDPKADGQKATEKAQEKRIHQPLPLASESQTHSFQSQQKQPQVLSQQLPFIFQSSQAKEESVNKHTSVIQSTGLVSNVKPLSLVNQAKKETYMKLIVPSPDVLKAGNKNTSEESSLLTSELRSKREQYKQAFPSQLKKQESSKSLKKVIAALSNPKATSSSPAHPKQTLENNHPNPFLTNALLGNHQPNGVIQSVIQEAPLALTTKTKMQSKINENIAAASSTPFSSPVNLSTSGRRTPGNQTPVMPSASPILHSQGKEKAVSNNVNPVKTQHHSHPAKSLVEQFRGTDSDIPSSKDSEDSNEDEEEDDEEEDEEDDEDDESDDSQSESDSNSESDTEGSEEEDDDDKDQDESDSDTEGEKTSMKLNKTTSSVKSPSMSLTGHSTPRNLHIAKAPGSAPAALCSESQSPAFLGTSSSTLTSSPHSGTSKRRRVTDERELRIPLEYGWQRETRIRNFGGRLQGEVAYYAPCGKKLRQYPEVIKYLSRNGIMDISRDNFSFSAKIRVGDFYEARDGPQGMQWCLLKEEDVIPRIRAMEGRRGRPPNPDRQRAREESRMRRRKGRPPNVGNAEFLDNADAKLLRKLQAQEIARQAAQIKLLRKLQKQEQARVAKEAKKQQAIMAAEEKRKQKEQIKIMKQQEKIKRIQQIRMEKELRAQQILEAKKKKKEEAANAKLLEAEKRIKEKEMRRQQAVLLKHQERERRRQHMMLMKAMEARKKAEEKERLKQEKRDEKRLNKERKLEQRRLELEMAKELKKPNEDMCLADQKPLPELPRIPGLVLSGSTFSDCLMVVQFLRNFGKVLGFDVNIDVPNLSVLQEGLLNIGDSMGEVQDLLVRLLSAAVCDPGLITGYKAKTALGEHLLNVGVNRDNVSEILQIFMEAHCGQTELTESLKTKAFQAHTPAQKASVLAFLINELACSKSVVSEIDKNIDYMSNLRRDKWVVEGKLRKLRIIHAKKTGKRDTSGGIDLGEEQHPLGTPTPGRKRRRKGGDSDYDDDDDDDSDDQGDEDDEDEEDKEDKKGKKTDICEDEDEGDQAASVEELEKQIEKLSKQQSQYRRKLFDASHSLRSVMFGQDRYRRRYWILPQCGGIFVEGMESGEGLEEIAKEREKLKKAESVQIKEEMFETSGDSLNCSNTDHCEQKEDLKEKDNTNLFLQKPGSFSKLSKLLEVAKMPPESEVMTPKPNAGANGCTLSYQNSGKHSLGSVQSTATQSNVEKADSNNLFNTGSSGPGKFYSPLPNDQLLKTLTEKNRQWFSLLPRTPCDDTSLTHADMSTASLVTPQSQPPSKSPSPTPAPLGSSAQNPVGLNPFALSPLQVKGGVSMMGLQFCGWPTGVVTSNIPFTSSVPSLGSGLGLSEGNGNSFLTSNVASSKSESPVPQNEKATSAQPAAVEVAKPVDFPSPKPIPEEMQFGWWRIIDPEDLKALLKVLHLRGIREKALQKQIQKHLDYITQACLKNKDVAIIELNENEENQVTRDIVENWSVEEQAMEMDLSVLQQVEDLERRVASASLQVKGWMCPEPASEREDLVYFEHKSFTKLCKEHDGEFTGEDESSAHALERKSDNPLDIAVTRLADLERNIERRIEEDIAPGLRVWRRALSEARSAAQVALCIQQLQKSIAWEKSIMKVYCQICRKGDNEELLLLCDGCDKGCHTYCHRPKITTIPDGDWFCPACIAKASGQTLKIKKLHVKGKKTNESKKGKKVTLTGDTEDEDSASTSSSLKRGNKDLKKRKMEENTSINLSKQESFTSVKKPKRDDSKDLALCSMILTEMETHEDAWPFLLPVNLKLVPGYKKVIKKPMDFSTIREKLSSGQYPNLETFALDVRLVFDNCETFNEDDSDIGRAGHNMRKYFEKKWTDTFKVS", "assay": "qHTS Assay for Inhibitors of BAZ2B; also: nearly all actives have a fitted effect of over 60% in size", "details": "AlphaScreen BAZ2B-H3K14Ac peptide displacement; activity change, negative = inhibition: at 114 µM (top of the series)", "procedure,_shortened": "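Compounds, titrated to a top concentration of 110 uM, were incubated 30 min at room temperature with preformed BAZ2B/acetyl-K14 H3 peptide complex (50 nM each). Proximity signal was measured by AlphaScreen after 20 min with beads.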", "values": [{"compound": "COc1cc(NC(=O)Cc2c(C(=O)O)c(C)cn2C)cc(OC)c1", "Potency": "inconclusive: 79.4 µM [inhibitor, single point]"}, {"compound": "COc1cccc(N2CCN(CC(=O)c3c[nH]c4ccc(OC)cc34)CC2C)c1", "note": "(centres undefined)", "Potency": "inconclusive: 17.8 µM [inhibitor, partial curve]"}, {"compound": "Nc1nc(N)c(C=Nc2ccc(Br)cc2)c(Nc2ccc(Br)cc2)n1", "Potency": "inconclusive: 79.4 µM [inhibitor, single point]"}, {"compound": "COc1ccccc1OCCCOc1cccc(/C=C2\\SC(=O)NC2=O)c1", "Potency": "active: 79.4 µM"}, {"compound": "Cc1ccc(C(=O)n2nc(C)c(S(=O)(=O)N3CCCCCC3)c2C)cc1", "activity change, negative = inhibition": "inactive: 53.6%"}, {"compound": "CC1CCN(c2nc3ccc(C(=O)N4CCN(Cc5ccc6c(c5)OCO6)CC4)cc3s2)CC1", "Potency": "inconclusive: 39.8 µM [inhibitor, partial curve]"}, {"compound": "O=[N+]([O-])c1cc(Br)c(O)c(/C=N/Nc2nc3ccccc3s2)c1", "Potency": "active: 35.5 µM"}, {"compound": "COc1ccc(N2C(=O)c3ccc(C(=O)Nc4ccccc4O)cc3C2=O)cc1", "Potency": "inconclusive: 89.1 µM [inhibitor, single point]"}, {"compound": "CSc1ccccc1NC(=O)CN(C)C(=O)Cc1c[nH]c2ccccc12", "activity change, negative = inhibition": "inactive: 0.498%"}, {"compound": "NS(=O)(=O)c1ccc(NC(=O)COc2ccc(C(=O)c3ccc(F)cc3)cc2)cc1", "activity change, negative = inhibition": "inactive: -13.5%"}, {"compound": "Cc1ccc(-c2nn3c(C)nnc3s2)cc1NC(=O)c1ccc(-c2ccc(Cl)cc2Cl)o1", "Potency": "inconclusive: 89.1 µM [inhibitor, single point]"}, {"compound": "CCCCCCCCc1nnc(NC(=O)c2ccco2)s1", "Potency": "inconclusive: 89.1 µM [inhibitor, single point]"}, {"compound": "COCCSc1ccccc1C(=O)Nc1cccnc1", "activity change, negative = inhibition": "inactive: -3.14%"}, {"compound": "Cc1ccc(C2=CC(c3c(F)cccc3Cl)n3ncnc3N2)cc1C", "note": "(centres undefined)", "Potency": "inconclusive: 28.2 µM [inhibitor, full curve]"}, {"compound": "CCN(CC)CCN(C(=O)c1ccc2c(c1)OCCO2)c1nc2cc(C)cc(C)c2s1", "Potency": "inconclusive: 28.2 µM [inhibitor, partial curve]"}, {"compound": "CCOC(=O)CSc1nnc(-c2ccco2)n1-c1ccccc1", "activity change, negative = inhibition": "inactive: -4.9%"}, {"compound": "COc1cc(C)c(Cl)cc1S(=O)(=O)n1ccnc1C", "Potency": "inconclusive: 100 µM [inhibitor, single point]"}, {"compound": "CCCCN1C(=O)C(=O)N(CC(=O)N2CCc3ccccc32)C1=O", "activity change, negative = inhibition": "inactive: 2.01%"}, {"compound": "O=C1CC(c2ccc3c(c2)OCCO3)Oc2ccccc21", "note": "(centres undefined)", "activity change, negative = inhibition": "inactive: -10.5%"}, {"compound": "Cn1nc(C(=O)NCCc2ccc(Cl)cc2)c2c1-c1ccccc1S(=O)(=O)C2", "Potency": "inconclusive: 89.1 µM [inhibitor, single point]"}, {"compound": "CCCN1C(=O)C(Cc2nc3ccccc3c(=O)n2-c2cccc(C)c2)c2ccccc21", "note": "(centres undefined)", "activity change, negative = inhibition": "inactive: -25.7%"}, {"compound": "NS(=O)(=O)c1ccc(N/N=C/c2cn(-c3ccccc3)nc2-c2cccs2)cc1", "activity change, negative = inhibition": "inactive: 3.39%"}, {"compound": "c1ccc(-c2ccccc2OCCCCN2CCCCCC2)cc1", "Potency": "active: 50.1 µM"}, {"compound": "Cc1cc(NC(=O)COc2ccccc2)cc(-c2nc3ccccc3o2)c1O", "activity change, negative = inhibition": "inactive: -8.93%"}, {"compound": "O=C(Nc1cccc(S(=O)(=O)N2CCOCC2)c1)c1ccccn1", "Potency": "inconclusive: 100 µM [inhibitor, single point]"}, {"compound": "O=c1c2ccccc2sn1-c1ccc(F)cc1", "Potency": "active: 4.47 µM"}, {"compound": "CCOC(=O)C1CCN(Cc2ccc(F)c(F)c2)CC1", "Potency": "inconclusive: 89.1 µM [inhibitor, single point]"}, {"compound": "C[C@@H]1C=C[C@](Cc2ccccc2)(C(=O)NCCc2c[nH]c3ccccc23)N1C(=O)c1ccccc1", "Potency": "inconclusive: 44.7 µM [inhibitor, partial curve]"}, {"compound": "O=C(N/N=C/c1cc(Br)c(Br)o1)c1cccnc1", "Potency": "inconclusive: 50.1 µM [inhibitor, partial curve]"}, {"compound": "COCCn1c(SCC(=O)Nc2ccc(N3CCOCC3)cc2)nc2ccccc21", "Potency": "inconclusive: 79.4 µM [inhibitor, single point]"}, {"compound": "COc1ccc(CCNC(=O)c2ccc(-c3cccc([N+](=O)[O-])c3)o2)cc1OC", "Potency": "inconclusive: 44.7 µM [inhibitor, partial curve]"}, {"compound": "COc1ccc(C(CCNCc2ccc(N(C)C)cc2)C(C)C)cc1", "note": "(centres undefined)", "Potency": "active: 25.1 µM"}, {"compound": "Cc1nc(N2CCCC2)ncc1C(=O)Nc1ccc(F)cc1F", "activity change, negative = inhibition": "inactive: -5.71%"}, {"compound": "Fc1cc(F)c2nc(N3CCCC3)sc2c1", "activity change, negative = inhibition": "inactive: 14.7%"}, {"compound": "O=C(NCCCNC(=O)c1cccnc1)c1ccc(Cl)cc1", "activity change, negative = inhibition": "inactive: 0.567%"}, {"compound": "CN(C)Cc1c(O)ccc2occ(C(=O)c3ccccc3)c12", "Potency": "inconclusive: 89.1 µM [inhibitor, single point]"}, {"compound": "O=C(NCCN1CCOCC1)c1cc2ccccc2o1", "activity change, negative = inhibition": "inactive: -0.831%"}, {"compound": "CCOc1ccccc1N1CCN(Cc2ccc(Br)s2)CC1", "Potency": "inconclusive: 89.1 µM [inhibitor, single point]"}, {"compound": "O=C1N/C(=N\\S(=O)(=O)Cc2ccccc2)S/C1=C/c1cc([N+](=O)[O-])ccc1O", "activity change, negative = inhibition": "inactive: -32.4%"}, {"compound": "O=C(c1ccc(=O)[nH]n1)N1CCN(S(=O)(=O)c2ccc3ccccc3c2)CC1", "Potency": "inconclusive: 89.1 µM [inhibitor, single point]"}, {"compound": "Cc1ccccc1CNC1CCCCC1", "activity change, negative = inhibition": "inactive: 7.83%"}, {"compound": "Oc1c(C(Nc2cccc(C(F)(F)F)c2)c2ccncc2)ccc2cccnc12", "note": "(centres undefined)", "Potency": "active: 20 µM"}, {"compound": "O=C(NCc1ccccc1)c1ccc(CSc2nc3cccnc3n2Cc2ccccc2F)cc1", "Potency": "active: 22.4 µM"}, {"compound": "COc1ccc(C(=O)COC(=O)Cn2c(C)csc2=O)c(OC)c1", "Potency": "inconclusive: 56.2 µM [inhibitor, partial curve]"}, {"compound": "Nc1nc(Nc2ccccc2)nc(NC2CCCCC2)c1[N+](=O)[O-]", "Potency": "inconclusive: 39.8 µM [inhibitor, partial curve]"}, {"compound": "CCOc1ccc(N(CC(=O)Nc2ccc(C)cc2)S(C)(=O)=O)cc1", "Potency": "inconclusive: 89.1 µM [inhibitor, single point]"}, {"compound": "Cc1ccc(C2=NN(CC(=O)NCCN(CC(C)C)CC(C)C)C(=O)CC2)cc1", "Potency": "inactive"}, {"compound": "CC1CCN(S(=O)(=O)c2ccc3c(c2)CCC(=O)N3CC(=O)Nc2cccc(C#N)c2)CC1", "Potency": "active: 50.1 µM"}, {"compound": "O=C1CCC(=O)N1CNc1ccc(Oc2ccccc2)cc1", "Potency": "inconclusive: 79.4 µM [inhibitor, single point]"}]}]}
